Experimental data reported in PubChem BioAssay (NCI).
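Dose response: 5 concentrations. Exposure: 48 h. Format: 96-well plates. Endpoint: linear interpolation; highest concentration if not reached. Here, GI50 denotes the concentration required for 50% inhibition of growth. TGI denotes the concentration required for complete inhibition of growth.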

System: NCI-H322M lung
Test: growth of human tumour cells (NCI), 48 h

Question: How did the GI50 turn out when CCCCOC(=O)N1CCN(/[N+]([O-])=N/Oc2ccc([N+](=O)[O-])cc2[N+](=O)[O-])CC1 was run?
Answer: 11.6 µM

Question: And the TGI?
Answer: 25 µM

Question: With Cn1ncnc1[C@H]1c2n[nH]c(=O)c3cc(F)cc(c23)N[C@@H]1c1ccc(F)cc1 as the molecule, how does the GI50 read?
Answer: > 100 µM

Question: And the TGI?
Answer: > 100 µM

Question: How did the TGI turn out when C=C[C@@H](C)[C@H](NS(=O)(=O)c1ccc(C)cc1)C(=O)OCC was run?
Answer: > 100 µM

Question: Which TGI does the source give for Cc1ccc(OCC2OC(n3cnc4c(Cl)nc(N)nc43)CC2Oc2ccc(C)cc2)cc1 (stereo unspecified) here?
Answer: > 81.4 µM

Question: Which TGI does the source give for C[n+]1cccc2c(=O)c3ccccc3oc21 here?
Answer: > 100 µM

Question: For CSCSSC, which TGI is on record?
Answer: > 100 µM

Question: Which GI50 does the source give for Cc1ccc(S(=O)(=O)c2c(COC(=O)c3cccc(C)c3)c(-c3ccccc3)nn2C)cc1 here?
Answer: > 100 µM

Question: What about the TGI of the same molecule?
Answer: > 100 µM

Question: O=c1[nH]nc(-c2ccccc2)n1/N=C\c1ccccc1 was tested. Which TGI did it give?
Answer: > 100 µM

Question: CCOC(=O)c1nc2ccc(C(F)(F)F)cc2nc1Oc1cc(OC)c(OC)c(OC)c1 was tested. Which TGI did it give?
Answer: > 100 µM

Question: CN(C)c1ccc(/C(F)=C(F)/C(F)=C(F)/C(F)=C(\F)c2ccc(Br)cc2)cc1 was tested. Which TGI did it give?
Answer: > 87.3 µM

Question: Which TGI does the source give for CO/N=C1\CC(NC(=O)CNC(=O)OC(C)(C)C)c2ccsc21 (stereo unspecified) here?
Answer: > 100 µM

Question: With COc1cc(C(=O)c2c(-c3ccccc3)oc3c(OC)cccc23)cc(OC)c1OC as the molecule, how does the GI50 read?
Answer: 0.135 µM

Question: What about the TGI of the same molecule?
Answer: > 100 µM

Question: How did the TGI turn out when O=C1/C(=C/c2ccccc2)CN(C(=O)CCN2CCOCC2)C/C1=C\c1ccccc1 was run?
Answer: 17.8 µM

Question: O=C1c2cc3c(cc2[C@@H]2[C@H]1c1ccc([N+](=O)[O-])cc1C(=O)N2CCCBr)OCO3 was tested. Which GI50 did it give?
Answer: 0.076 µM

Question: And the TGI?
Answer: 6.02 µM

Question: For CC(=O)[CH-]C(=O)c1ccccc1.CC(=O)[CH-]C(=O)c1ccccc1.CC[O-].CC[O-].[Hf+4], which GI50 is on record?
Answer: 26.7 µM

Question: And the TGI?
Answer: > 100 µM

Question: How did the TGI turn out when Cc1ccc(/C(O)=C/c2nc3ccccc3sc2=O)c(C)c1 was run?
Answer: > 100 µM

Question: How did the TGI turn out when COc1cc([C@@H]2c3cc4c(cc3[C@@H](c3c(O)cc(O)c5c3O[C@H](c3ccc(O)c(O)c3)[C@@H](O)C5)[C@H]3COC(=O)[C@H]23)OCO4)cc(OC)c1OC was run?
Answer: > 100 µM

Question: With NNC(=O)C1CCC(=O)N1S(=O)(=O)c1ccccc1 (stereo unspecified) as the molecule, how does the TGI read?
Answer: > 100 µM

Question: COc1cccc(-c2c[nH]c3c(N/N=C/c4ccncc4)ncnc23)c1 was tested. Which GI50 did it give?
Answer: 5.51 µM

Question: And the TGI?
Answer: > 25 µM

Question: For C/C(O)=C(/C=N/C(=S)Nc1ccc(S(N)(=O)=O)cc1)C(=O)Nc1ccccc1C, which TGI is on record?
Answer: > 100 µM

Question: How did the TGI turn out when NCCCN(CCCN(C(=O)Nc1ccccc1)c1ccccc1)C(=O)Nc1ccccc1 was run?
Answer: > 100 µM

Question: COc1cc2c(cc1OC)[C@H](C)N1CCc3cc(OC)c(OC)cc3[C@@H]1C2 was tested. Which TGI did it give?
Answer: > 100 µM

Question: Which TGI does the source give for CCC1(c2ccccc2)Sc2ccccc2-n2cccc2C1=O (stereo unspecified) here?
Answer: > 10 µM

Question: O=C(Nc1cccc(-n2cc(-c3ccncc3)c(-c3ccc(Cl)c(O)c3)n2)c1)Nc1cc(C(F)(F)F)cc(C(F)(F)F)c1 was tested. Which GI50 did it give?
Answer: 1.04 µM

Question: And the TGI?
Answer: 3.08 µM

Question: Which TGI does the source give for COC(OC)[C@@H]1OC[C@H](n2cnc3c(N)ncnc32)[C@H]1O here?
Answer: > 100 µM

Question: Which TGI does the source give for CC1CCCC2(CC[N+](C)(CCC[N+](C)(C)C)CC2)C1 (stereo unspecified) here?
Answer: > 100 µM

Question: C=C/C=C/NC(=O)OCc1ccccc1 was tested. Which TGI did it give?
Answer: > 100 µM

Question: How did the TGI turn out when CCOC(=O)/C(C1=NCCN1)=C(\O)c1ccccc1 was run?
Answer: > 100 µM

Question: With Cc1c(C(=O)Nc2ccccc2)sc2ncn(Cc3cccc(Cl)c3)c(=O)c12 as the molecule, how does the GI50 read?
Answer: 47.2 µM

Question: And the TGI?
Answer: > 100 µM

Question: Cc1cc(-c2nc3cc(F)ccc3s2)ccc1NC(=O)[C@@H](N)CCCCN was tested. Which TGI did it give?
Answer: 13.8 µM

Question: With CCCC(=O)NC(Nc1ccc(S(=O)(=O)Nc2cc(C)on2)cc1)(C(=O)OCC)C(F)(F)F (stereo unspecified) as the molecule, how does the TGI read?
Answer: > 100 µM

Question: For C#CC#CC#CC#CC#CC#CC#CC#CCC1OCC(COC(=O)O[C@@H](C(=O)O[C@H]2C[C@@]3(O)[C@@H](OC(=O)c4ccccc4)[C@@H]4[C@]5(OC(C)=O)CO[C@@H]5C[C@H](O)[C@@]4(C)C(=O)[C@H](OC(C)=O)C(=C2C)C3(C)C)[C@@H](NC(=O)c2ccccc2)c2ccccc2)O1 (stereo partly specified), which GI50 is on record?
Answer: 0.307 µM

Question: And the TGI?
Answer: > 33.3 µM

Question: COC(=O)C1CCC(=S)N1C(=O)c1ccccc1 (stereo unspecified) was tested. Which TGI did it give?
Answer: > 100 µM

Question: Which TGI does the source give for O=C(NCCCCCCCCCCCCNC(=O)Nc1cccc2ccccc12)Nc1cccc2ccccc12 here?
Answer: 32.9 µM

Question: With OC1(C23CC4CC(CC(C4)C2)C3)CSCC1(O)C12CC3CC(CC(C3)C1)C2 (stereo unspecified) as the molecule, how does the TGI read?
Answer: > 100 µM

Question: Which TGI does the source give for c1cncc(C2N3CCCCC3[C@@H]3c4[nH]c5ccccc5c4CCN23)c1 (stereo partly specified) here?
Answer: > 100 µM
